In all, about 280,000 compounds went through this assay and about 100 (0.036%) were called active. Inconclusive means that the source gave no clear call. Such entries were picked first, then a sample of the others. The call rests on the fitted dose curve; in most records, active means well fitted inhibition curve with a large enough effect in the signal ratio, with a control signal flat (not every such curve was filed as active); inconclusive means small, poorly fitted or top-dose-only effect, or effect the other way, or a change in a side signal; inactive means no such curve, though single readings can be large or run the other way; the % refers to the signal ratio. Potencies of inconclusive entries are doubtful fits and often do not repeat. A note “side channel” means that the fit belongs to a control or component signal, not to the main read-out.
Molecular target: Muscleblind-like protein 1 (Homo sapiens) (UniProt Q9NR56)
UniProt Q9NR56, sequence (Q9NR56 whole entry, looked up): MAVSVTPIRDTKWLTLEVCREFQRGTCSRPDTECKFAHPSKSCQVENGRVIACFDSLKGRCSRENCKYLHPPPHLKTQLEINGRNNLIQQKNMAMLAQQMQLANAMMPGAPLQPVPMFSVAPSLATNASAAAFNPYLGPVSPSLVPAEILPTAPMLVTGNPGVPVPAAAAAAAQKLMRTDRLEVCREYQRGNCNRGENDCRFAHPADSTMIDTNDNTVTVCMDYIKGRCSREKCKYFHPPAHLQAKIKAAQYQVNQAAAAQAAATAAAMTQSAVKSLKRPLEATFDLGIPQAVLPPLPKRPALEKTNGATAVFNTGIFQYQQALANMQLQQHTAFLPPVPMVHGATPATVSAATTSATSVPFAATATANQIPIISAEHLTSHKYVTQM
Experiment: qHTS Assay for Inhibitors of MBNL1-poly(CUG) RNA binding
Details: TR-FRET MBNL1-His/biotin-(CUG)12 binding, 665/545 ratio; series mostly up to 57.5 µM
Procedure, shortened: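 MBNL1-His + Biotin-(CUG)12, cpd titration 92 nM–58 uM; Tb anti-His Ab 0.055 ng/ul, SA-XL665 5 nM (final); 60 min RT; ratiometric 665/545 nm, Ex 340 nm; normalized to buffer and full-complex controls.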
Potency means the concentration at half of the fitted maximal effect; tags describe the fitted curve by direction and shape or compound fluorescence and quenching.

| SMILES | Potency |
| --- | --- |
| O=C(Oc1ccc(C(=S)N2CCCCC2)cc1)c1ccccc1 | inactive |
| CCOC(=O)c1c(N2C(=O)C3C4C=CC(C4)C3C2=O)sc2c1CCC(C)C2 (stereo unspecified) | inconclusive: 0.0631 µM [fluorescent, side channel, full curve] |
| NC(=O)c1cc(C(N)=O)nc(Cl)n1 | inconclusive: 11.2 µM [quencher, side channel, partial curve] |
| CCOC(=O)Cn1c(N)c(C(=O)OC)sc1=S | inconclusive: 14.1 µM [quencher, side channel, partial curve] |
| O=C(CNC1CCCCCC1)Nc1ccc(S(=O)(=O)NC2CC2)cc1 | inconclusive: 6.31 µM [quencher, side channel, single point] |
| O=C(COc1ccccc1)N/N=C/c1ccc([N+](=O)[O-])o1 | inconclusive: 14.1 µM [quencher, side channel, partial curve] |
| CC1CN=C(NC(=O)c2cccc([N+](=O)[O-])c2)S1 (stereo unspecified) | inconclusive: 2.51 µM [quencher, side channel, full curve] |
| COc1cc2c(cc1NC(=O)CN(C)Cc1cccc(OC)c1OC)oc1ccccc12 | inconclusive: 0.355 µM [fluorescent, side channel, full curve, poor fit] |
| O=C(OCc1cccc([N+](=O)[O-])c1)c1cccnc1Cl | inconclusive: 7.94 µM [quencher, side channel, partial curve] |
| O=C(/C=C/Sc1ccccc1)c1ccccc1 | inconclusive: 1 µM [quencher, side channel, full curve] |
| COc1cccc(C2Nc3ccc4ccccc4c3C3=C2C(=O)CC(C)(C)C3)c1OCC(=O)O (stereo unspecified) | inconclusive: 35.5 µM [quencher, side channel, single point] |
| O=[N+]([O-])c1cnc2ccccc2c1 | inconclusive: 3.55 µM [quencher, single point] |
| Cc1cccc(NC(=O)/C=C/c2ccc3c(c2)OCO3)n1 | inconclusive: 14.1 µM [quencher, side channel, partial curve] |
| CN1CCN(C2=NC(=O)/C(=C/c3cn[nH]c3-c3ccccc3)S2)CC1 | inconclusive: 12.6 µM [quencher, side channel, partial curve] |
| Cc1c(C(=O)O)cccc1-c1ccc(/C=N/n2cnnc2)o1 | inconclusive: 15.8 µM [quencher, side channel, partial curve] |
| Cc1c(N2C(=O)c3cccc4cccc(c34)C2=O)c(=O)n(-c2ccccc2)n1C | inconclusive: 17.8 µM [quencher, side channel, partial curve] |
| CCn1cc(/C=C/C(=O)c2ccc(O)cc2)c(C)n1 | inconclusive: 35.5 µM [quencher, side channel, single point] |
| COc1ccc(-c2[nH]nc3c2C(c2ccc(OC(=O)N4CCOCC4)cc2)C(C#N)=C(N)O3)cc1 (stereo unspecified) | inconclusive: 31.6 µM [quencher, side channel, single point] |
| Cc1cc2ccccn2c1C(=O)c1ccc([N+](=O)[O-])cc1[N+](=O)[O-] | inconclusive: 2.82 µM [quencher, side channel, full curve] |

| SMILES | Potency |
| --- | --- |
| CCOc1ccc(C(C(=O)NCC2CCCO2)N(C(=O)c2snc(C(N)=O)c2N)c2ccc3c(c2)OCCO3)cc1 (stereo unspecified) | inconclusive: 79.4 µM [inhibitor, partial curve] |
| CC1=CN2C(=N)/C(=C/c3ccc([N+](=O)[O-])o3)C(=O)N=C2S1 | inconclusive: 44.7 µM [quencher, side channel, partial curve, poor fit] |
| Cc1cc(NC(=O)COc2ccc3oc4ccccc4c3c2)no1 | inactive |
| COC(=O)c1ccc(/C=C/c2ccc3cccc(OC(C)=O)c3n2)cc1 | inconclusive: 8.91 µM [quencher, side channel, partial curve] |
| O=C(O)c1cccc(Cn2c(Cl)c(/C=N/NC(=O)c3ccccc3)sc2=O)c1 | inconclusive: 28.2 µM [quencher, side channel, partial curve] |
| Cn1c(SCC(=O)c2cccs2)nnc1-c1ccco1 | inconclusive: 0.199 µM [quencher, side channel, full curve] |
| COc1ccc(C(=O)Nc2ccccc2C(=O)NC(Cc2ccc(O)cc2)C(=O)NNC(=O)c2ccccc2Cl)cc1 (stereo unspecified) | inconclusive: 20 µM [fluorescent, side channel, partial curve] |
| Cc1cccc(C)c1NC(=O)C1CCCN1S(=O)(=O)c1ccc(-c2ccc(=O)[nH]n2)s1 (stereo unspecified) | inconclusive: 28.2 µM [quencher, side channel, partial curve] |
| CC1=C(C)SC(=C(C#N)c2nnc(N3CCOCC3)n2-c2ccccc2)S1 | inconclusive: 8.91 µM [quencher, side channel, single point] |
| Cc1ccc(N(C)C(=O)c2cc(S(=O)(=O)N3CCCCC3)c[nH]2)cc1 | inconclusive: 39.8 µM [fluorescent, side channel, single point] |
| CCCCN(C)Cc1c(C)[nH]c2ccc(OCC)cc2c1=O | inconclusive: 8.91 µM [quencher, side channel, single point] |
| CCOc1ccc(NS(=O)(=O)c2csc(C(N)=O)c2)cc1 | inactive |
| CCOC(=O)C1(C)/C(=N/Nc2ccccc2)C(=O)C(=O)N1c1ccccc1 (stereo unspecified) | inconclusive: 14.1 µM [quencher, side channel, partial curve] |
| O=C(Oc1cncc(Cl)c1)c1ccco1 | inconclusive: 11.2 µM [quencher, side channel, partial curve] |
| O=C(O)c1cc(-c2ccc(/C=N/N3C(=O)C4C5C=CC(C6CC56)C4C3=O)o2)ccc1Cl (stereo unspecified) | inconclusive: 22.4 µM [quencher, side channel, partial curve] |
| CNC(=O)COC(=O)/C=C/c1nc2ccccc2s1 | inactive |
| Cc1ccc(S(=O)(=O)N2CCN(C(=O)c3ccc(N4CCCCC4)c([N+](=O)[O-])c3)CC2)cc1 | inconclusive: 15.8 µM [quencher, side channel, partial curve] |
| O=C(COc1ncnc2ccccc12)Nc1ccccc1[N+](=O)[O-] | inconclusive: 25.1 µM [quencher, side channel, partial curve] |
| Clc1ccc(-c2cn3nc4c(nc3n2)CCCC4)cc1 | inconclusive: 17.8 µM [quencher, side channel, partial curve] |

| SMILES | Potency |
| --- | --- |
| Cc1ccc([N+](=O)[O-])cc1N=C(c1ccc([N+](=O)[O-])cc1)N1CCOCC1 | inconclusive: 2.51 µM [quencher, side channel, single point] |
| O=[N+]([O-])c1ccccc1S(=O)(=O)NCCSc1ccccc1 | inconclusive: 35.5 µM [quencher, side channel, single point] |
| O=[N+]([O-])c1cccc(-c2nnc3cccc(Cl)n23)c1 | inconclusive: 15.8 µM [quencher, side channel, partial curve] |
| O=C(CN1C(=O)c2ccccc2S1(=O)=O)Nc1cccnc1 | inconclusive: 63.1 µM [inhibitor, single point] |
| COc1ccc(CCNS(=O)(=O)c2ccc3oc(C(=O)O)c(C)c3c2)cc1OC | inconclusive: 7.08 µM [quencher, side channel, single point] |
| CCOC(=O)c1cnc(SCC(=O)Nc2ccccc2C(=O)OC)nc1N | inconclusive: 10 µM [quencher, side channel, single point] |
| CCO[C@@H]1OC(C(=O)N2CCOCC2)=C[C@H](c2ccccc2)[C@H]1CCCO | inconclusive: 100 µM [inhibitor, partial curve, poor fit] |
| Clc1ccc2c(N/N=C/c3cccnc3)ccnc2c1 | inconclusive: 20 µM [quencher, side channel, partial curve] |
| C[C@@H]1CN(Cc2cn(C)nc2-c2cccc(Cl)c2)C[C@H](C)O1 | inactive |
| CSc1nc2c(c(=O)n1C)SC(C)C2 (stereo unspecified) | inconclusive: 39.8 µM [quencher, side channel, single point] |
| O=[N+]([O-])c1ccc2nc(SCc3cn4cccnc4n3)[nH]c2c1 | inconclusive: 3.16 µM [quencher, side channel, full curve] |
| CC(C)[C@@H](N)C(=O)N/N=C/c1ccc2nccnc2c1 | inconclusive: 14.1 µM [quencher, side channel, partial curve] |
| CCOC(=O)c1sc(NC(=O)/C=C/c2c(F)cccc2Cl)nc1C | inconclusive: 2 µM [quencher, side channel, partial curve] |
| COc1cc(/C=N/NC(=O)c2ccncc2)ccc1OCC(=O)Nc1cccc([N+](=O)[O-])c1 | inconclusive: 158 µM [inhibitor, single point] |
| O=C(CC(NS(=O)(=O)c1ccc(Cl)cc1)c1ccco1)N1CCc2ccccc21 (stereo unspecified) | inactive |
| COc1ccc(/C=C(\C#N)c2n[nH]c(Cn3cncn3)n2)cc1 | inconclusive: 28.2 µM [quencher, side channel, partial curve] |
| Cc1cc2cc(CN(CCCO)S(=O)(=O)c3cccc4nsnc34)c(=O)[nH]c2cc1C | inconclusive: 14.1 µM [quencher, partial curve] |
| COc1cc(/C=N/NC(=O)c2nnn(-c3nonc3N)c2C(C)C)ccc1OCc1ccccc1 | inactive |

Reference: PubChem BioAssay AID2675 (National Center for Advancing Translational Sciences (NCATS), 2010)
